From PubChem BioAssay AID1159614 (National Center for Advancing Translational Sciences (NCATS), 2016) come the findings set out here.

Screen size: about 45,000 compounds; about 65 (0.1%) were called active. Calls come from the whole dose curve; as a rule, active = well fitted activation curve with a large enough effect; inconclusive = small, poorly fitted or top-dose-only effect; inactive = no such curve, though single readings can be large or run the other way. Some of the results follow.

Sequence of UniProt P54803 (P54803 whole entry, looked up): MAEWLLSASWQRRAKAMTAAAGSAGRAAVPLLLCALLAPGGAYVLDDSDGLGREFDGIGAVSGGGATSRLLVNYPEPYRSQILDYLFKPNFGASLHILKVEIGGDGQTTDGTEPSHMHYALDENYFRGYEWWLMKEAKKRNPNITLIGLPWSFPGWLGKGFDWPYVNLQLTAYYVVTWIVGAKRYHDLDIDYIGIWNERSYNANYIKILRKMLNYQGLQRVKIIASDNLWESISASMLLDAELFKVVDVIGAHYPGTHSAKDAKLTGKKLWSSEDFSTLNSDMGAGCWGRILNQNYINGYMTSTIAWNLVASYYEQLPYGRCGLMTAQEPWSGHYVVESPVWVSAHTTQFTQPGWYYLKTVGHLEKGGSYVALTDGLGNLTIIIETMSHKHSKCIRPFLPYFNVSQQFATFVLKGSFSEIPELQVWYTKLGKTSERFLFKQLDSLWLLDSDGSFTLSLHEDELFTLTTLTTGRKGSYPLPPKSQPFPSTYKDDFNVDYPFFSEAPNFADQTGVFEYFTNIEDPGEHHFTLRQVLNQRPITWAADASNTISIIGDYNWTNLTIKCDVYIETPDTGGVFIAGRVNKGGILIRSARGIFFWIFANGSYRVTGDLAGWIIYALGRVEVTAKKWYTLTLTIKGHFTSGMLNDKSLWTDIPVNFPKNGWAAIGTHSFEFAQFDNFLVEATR

In the assay the target is Galactocerebrosidase (Homo sapiens) (UniProt P54803). Put plainly: A Novel Cell-Based Assay to Identify Small Molecules for B -Galactocerebrosidase. Note: 0% is about no effect; nearly all actives have a fitted effect of over 65% in size. As to conditions: 145M-Twi-hGALC-G270D cells (Twitcher mouse brain line with human GALC G270D), HMU-beta-Gal fluorescence, 48 h; series mostly up to 57.5 µM; activation: at the top concentration. In a few lines:
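Brain-derived Twitcher mouse 145M-Twi cells stably expressing human GALC-G270D or wild-type GALC, treated live, then residual GALC activity read by fluorescence of HMU-b-Gal substrate (0.1 mM final) in citrate-phosphate buffer pH 5.2 with sodium taurocholate. Signal increase indicates enhancement.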
Take `CCOc1ccc(NC(=O)c2ccc3nc(C(C)C)oc3c2)cc1`: the “activation” value is inactive: -5.49%. As for `COc1ccc(Cn2c(C(=O)O)c(CNCc3ccc(C)o3)c3ccc(OC)cc32)cc1`, the “activation” value was inactive: 1.35%. In the case of `Cc1ccc(C)c(NC(=O)Cn2cc(S(=O)(=O)NC(C)C)c(S(=O)(=O)NC(C)C)c2)c1` it was inactive: -16%; in that of `CC(C)c1cc2c(cc1S(=O)(=O)O)[C@@]1(C)CCC[C@@](C)(C(=O)O)[C@@H]1CC2`, inactive: -11.9%; in that of `COc1cc(C(=O)Nc2c(C(=O)Nc3ccccc3F)oc3ccccc23)cc(OC)c1OC`, inactive: -10.8%. On to `Cc1ccc(OCc2cc(=O)n3cc(C)sc3n2)c(NC(=O)c2ccco2)c1`, for which the “activation” value is inactive: 5.78%.

For `CCC(=O)N1c2ccc(S(=O)(=O)CCC(=O)N3CCN(c4ccc(F)cc4)CC3)cc2CC1C` (centres undefined), the “activation” value was inactive: -8.54%.

Take `COc1ccc2c(c1)CC(NC(=O)Nc1ccc(Br)c(C)c1)CO2` (centres undefined): the “activation” value was inactive: -15.9%. On to `CCCn1c(NCc2ccccc2F)nc2ccccc21`, for which the “activation” value is inactive: -4.9%. Consider `O=C(Nc1cccc(NC(=O)c2ccc(Br)cc2)c1)c1ccccc1`, for which the “activation” value is inactive: -15.9%.

On to `CCN(C(=O)c1cccn(Cc2cccc(Cl)c2)c1=O)c1ccccc1`, for which the “activation” value is inactive: -1.42%.

Turning to `CCOC(=O)N1CCc2c(sc(NCc3cccc(F)c3)c2C(=O)Nc2ccc(OCC)cc2)C1`, the “activation” value was inactive: -24.3%.

With `CCCCCNC(=O)c1ccc2c(=O)n(CCc3ccccc3)c(=O)[nH]c2c1`, the “activation” value is inactive: -10.4%.

On to `COc1ccc(C(=O)Nc2nonc2-c2ccc(OC)c(OC)c2)cc1Cl`, for which the “activation” value was inactive: 21.6%. Then `Cc1ccc(-c2nc(Cn3c(SCc4ccc(F)cc4)nc4cccnc43)c(C)o2)cc1`, with inactive: -6.77%. In the case of `COc1ccc(-c2nnc(SCC(=O)Oc3cc(C)ccc3C)o2)cc1` it was inactive: 6.58%; in that of `O=C(NCc1cccc(F)c1)c1ccc2nc(CCc3ccccc3)oc2c1`, inactive: -13%; in that of `CCOC(=O)c1cc2c(=O)n3ccccc3nc2n(CC2CCCO2)c1=NC(=O)c1ccc(F)cc1` (centres undefined), inactive: -11.5%. With `CC(C)Oc1ccc(CNC(=O)c2ccc3c(c2)N(C)C(=O)C2CCCCN32)cc1` (centres undefined), the “activation” value is inactive: 0.0602%.

`Cc1ccc(N2CC(NC(=O)C3CCCC3)CC2=O)cc1C` (centres undefined): the “activation” value is inactive: -5.38%. Consider `CCc1cc(C(=O)NCc2ccc(F)cc2)no1`, for which the “activation” value was inactive: -14%.

As to `CC(=O)c1ccc(S(=O)(=O)N2CCn3cccc3C2c2ccc(F)c(F)c2)cc1` (centres undefined), the “activation” value is inactive: -8.26%. For the molecule `CN(C)C(=O)C(CCN1CCC(O)(c2ccc(Cl)cc2)CC1)(c1ccccc1)c1ccccc1`, the “activation” value is inactive: -7.89%. Then `COc1ccc(CNc2ncnc3c2c(-c2ccccc2)cn3-c2cccc(C)c2)cc1`, with inactive: -10.3%; and `COc1ccc(C(=O)Nc2cc(NC(=O)c3ccco3)ccc2OC)cc1Cl`, with inactive: 7.33%; and `O=C(CSc1nccn1-c1ccc(F)cc1)Nc1cccc2ccccc12`, with inactive: -12%.

On to `CCc1nnc(SCc2nc(-c3cccc(C)c3)oc2C)c2cc3sc(C)cc3n12`, for which the “activation” value was inactive: -5.89%.

`Cc1ccc(NC(=O)CSc2nc(C3CCCC3)nc3c2c(=O)n(C)c(=O)n3C)c(C)c1`: the “activation” value was inactive: 3.43%. For the molecule `COc1cccc(NC(=O)C2CCN(S(=O)(=O)c3c(C)noc3/C=C/c3cccs3)CC2)c1`, the “activation” value is inactive: -3.37%. As for `O=C(COc1ccccc1Cl)Nc1nc(-c2ccc(F)cc2)ns1`, the “activation” value is inactive: -41.5%.

In the case of `CCN1CCN(c2cc(C)c3cc(NC(=O)/C=C/c4ccc(OCCC(C)C)cc4)ccc3n2)CC1`, the “activation” value was inactive: -19.9%. With `CCOc1ccc(C(=O)NCCc2csc(-c3cccnc3)n2)cc1`, the “activation” value was inactive: -20.7%.

With `CCN(CC)S(=O)(=O)c1ccc2c(c1)N(CC(=O)NCCCN1CCN(c3cc(C)ccc3C)CC1)C(=O)CO2`, the “activation” value is inactive: -23.6%.

`Cc1ccc(NC(=O)C2CCCN(S(=O)(=O)c3cccc4nsnc34)C2)c(C)c1` (centres undefined): the “activation” value was inactive: -8.83%. Consider `O=C(Cn1c(=O)n(-c2ccc(F)c(Cl)c2)c(=O)c2sc3ccccc3c21)NC1CCCCC1`, for which the “activation” value was inactive: -9.52%. In the case of `CN1CCN(C2(CNC(=O)COc3ccc(C(C)(C)C)cc3)CCCCC2)CC1`, the “activation” value is inactive: 2.13%. Regarding `Cc1ccc(Cl)cc1Nc1nn2c(=O)c3ccc(C(=O)NC4CCC(C)CC4)cc3nc2s1` (centres undefined), the “activation” value is inactive: 5.95%.

As to `CCn1c(=N)c(C(=O)NC2CCCC2)cc2c(=O)n3cc(C)ccc3nc21`, the “activation” value is inactive: 1.94%. In the case of `Cc1ccc(OCCCCn2nnc3sc4c(c3c2=O)CCC(C)C4)cc1` (centres undefined) it was inactive: -4.24%; in that of `CCOC(=O)c1c(-c2ccccc2)oc2cc(Br)c(OCc3ccccc3)cc12`, inactive: 15.4%; in that of `CCc1ccc(NC(=O)Cn2c(=O)n(CCC(=O)NCCc3ccc(OC)c(OC)c3)c(=O)c3ccccc32)cc1`, inactive: -3.34%. As to `CCC(C)S(=O)(=O)c1oc(-c2ccc(F)cc2)nc1S(=O)(=O)c1ccc(F)cc1` (centres undefined), the “activation” value is inactive: -23.7%.

In the case of `CCOc1ccc(-n2nc3ccc(NC(=O)COc4ccccc4)cc3n2)cc1`, the “activation” value was inactive: -7.76%. Then `Cc1cc(C)cc(NC(=O)C2CCN(c3nc4ccccc4nc3C(F)(F)F)CC2)c1`, with inactive: -8.51%; and `CCNC(=O)C1CCCN(c2nn3cc(-c4ccc(C)cc4)nc3s2)C1` (centres undefined), with inactive: -22%. Turning to `CC(C)c1ccc(CNCCSc2nnnn2-c2ccccc2)cc1`, the “activation” value was inactive: -3.72%.

As to `CCCn1c(=N)c(C(=O)NC2CCCCC2)cc2c(=O)n3cc(C)ccc3nc21`, the “activation” value is inactive: 1.29%. For `CCOC(=O)c1cc(-c2ccccc2)n(-c2cccc(C(=O)NC(C)(C)C)c2)c1C`, the “activation” value was inactive: -33.5%. In the case of `CCOC(=O)c1cnc2ccc(OCC)cc2c1NCCc1ccc(OC)c(OC)c1` it was inactive: -22.2%.
